± gives the standard deviation. This is a selection; strong and weak results do not stand in their true shares.

The test system of this test is MIWI (PIWIL1) piRISC loaded with L1MC piRNA (30 nt). In words: pre-steady-state target cleavage rate (min^-1); MIWI and MILI are mouse PIWI proteins and EfPiwi is from a freshwater sponge; tags in brackets are library labels; higher = faster piRNA-guided slicing of the target. The note with it: guide: L1MC piRNA 5'p-UAACUAAAUACUAUGCAAGCUGUAGGUCCU
In short, it runs like this:
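The pre-steady-state cleavage rate came from a burst-and-steady-state fit to pooled data from three Cleave-'n-Seq trials, in which uncleaved targets were sequenced and normalised to depth and to weakly complementary targets. Each reaction held 0.1 nM transcribed, DNA-blocked target RNA library and 1 nM active affinity-purified piRISC carrying one synthetic guide, with or without 500 nM GTSF1 partner protein, in HEPES–potassium acetate buffer at 33 °C for 0–8 or 0–960 min. k3 was capped at 0.0001 min^-1.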

Where [1] appears, read: auxiliary factor: 500 nM mouse GTSF1.
Where [2] appears, read: auxiliary factor: none (no GTSF1).

In the case of UGGACCGUACAGCUUGCAUAGUAUUUAGUUA, the “pre-steady-state target cleavage rate” value reads like this: under setting [1], 1.24 ± 0.06; under setting [2], 0.064 ± 0.0096.
For UCGACCUACAGCUUGCAUAGUAUUUAGUUUA, the “pre-steady-state target cleavage rate” value under setting [1] came out at 1.27 ± 0.058 and the “pre-steady-state target cleavage rate” value under setting [2] stood at 0.0631 ± 0.0099.
For the sequence UCCUGGUACUGCUUGCAUACUAUUUAGUUA, the “pre-steady-state target cleavage rate” value is 0.115 ± 0.027 under setting [1] and 0.0131 ± 0.004 under setting [2].
In the case of UCCUCCUACAGCUUGCAUAGUAUUAAGUAA, the “pre-steady-state target cleavage rate” value runs as follows: under setting [1], 0.284 ± 0.041; under setting [2], 0.00611 ± 0.0026.
In the case of AGGACGAACAGCUUGCAUAGUAUUUAGUAA, the “pre-steady-state target cleavage rate” value is, setting by setting: under setting [1], 0.848 ± 0.08; under setting [2], 0.0516 ± 0.011.
Regarding AGGACCUACAGCUUGCAUAGAAUUUAGAAA, the “pre-steady-state target cleavage rate” value runs as follows: under setting [1], 0.378 ± 0.053; under setting [2], 0.00817 ± 0.0038.
As to UCCUGGUACAGCUUGCAUCGUAUUUAGUUA, the “pre-steady-state target cleavage rate” value runs as follows: under setting [1], 0.203 ± 0.024; under setting [2], 0.0269 ± 0.0059.
As for UCGUCCUAGAGCUUGCAUAGUAUUUAGUUA, the “pre-steady-state target cleavage rate” value under setting [1] stood at 0.957 ± 0.041 and the “pre-steady-state target cleavage rate” value under setting [2] was 0.0436 ± 0.0072.
In the case of UCCAGCUACAGCUUGCAUAGUAAUUAGUUA, the “pre-steady-state target cleavage rate” value was determined as 0.475 ± 0.038 under setting [1] and 0.0163 ± 0.0027 under setting [2].
Consider UCCUCCUACAGCCUUGCAUAGUAUUUAGUUA, for which the “pre-steady-state target cleavage rate” value was 1.06 ± 0.042 under setting [1] and 0.0471 ± 0.0083 under setting [2].
The like results for UCCUCCUACAGCUUGCAAUCUAUUUAGUUA were, in that order, 0.178 ± 0.018 and 0.00278 ± 0.002.
UCGACCUACAGUUGCAUAGUAUUUAGUUA: the “pre-steady-state target cleavage rate” value stood at 0.955 ± 0.065 under setting [1] and 0.00747 ± 0.0023 under setting [2].
UGGACCUACACCUUGCAUAGUAUUUAGUUA: the “pre-steady-state target cleavage rate” value under setting [1] came to 1.23 ± 0.045 and the “pre-steady-state target cleavage rate” value under setting [2] came out at 0.0585 ± 0.0088.
Consider UGGACCUACUGCUUGCAUAGAAUUUAGUUA, for which the “pre-steady-state target cleavage rate” value reads like this: under setting [1], 0.328 ± 0.022; under setting [2], 0.0199 ± 0.0058.
On to UCCUGGAUGAGGCUUGCAUAGUAUUUAGUUA, for which the “pre-steady-state target cleavage rate” value by setting is: under setting [1], 0.503 ± 0.039; under setting [2], 0.0399 ± 0.0095.
Turning to AGGACCUUCAGCAUGCAUAGUAUUUAGUUA, the “pre-steady-state target cleavage rate” value came to 1.21 ± 0.043 under setting [1] and 0.0478 ± 0.011 under setting [2].
On to AGCUCCUACAGCUUGCAUAGUAUUUAGUUA, for which the “pre-steady-state target cleavage rate” value is, setting by setting: under setting [1], 1.37 ± 0.053; under setting [2], 0.0847 ± 0.013.
For UCCUGCUACAGGUUGCAUAGUAUUUACUUA, the “pre-steady-state target cleavage rate” value reads like this: under setting [1], 0.192 ± 0.044; under setting [2], 0.0127 ± 0.0038.
For UCCUCCAACAGCUUGCAUAGUAUUUAGAUA, in that order: 0.491 ± 0.042 and 0.0201 ± 0.0048.
As to UCCUGCUACAGCUUGGAUAGUAAUUAGUUA, the “pre-steady-state target cleavage rate” value was determined as 0.605 ± 0.058 under setting [1] and 0.0139 ± 0.0035 under setting [2].
With UCGACCUACAGCUUGCUUAGUAUUUAGUUA, the “pre-steady-state target cleavage rate” value was determined as 1.66 ± 0.074 under setting [1] and 0.0474 ± 0.01 under setting [2].
For UGGACCUACAGCUUGCAUAGUAUAUACUUA, in that order: 0.104 ± 0.017 and 0.00955 ± 0.0025.
Take UCCUGCUACAGCUUGCUUACUAUUUAGUUA: the “pre-steady-state target cleavage rate” value was found to be 0.535 ± 0.031 under setting [1] and 0.0133 ± 0.0034 under setting [2].
The like results for UCCACCUACUGCUUGCAUAGUAUUAAGUUA were, in that order, 0.37 ± 0.029 and 0.0151 ± 0.0024.
Turning to “UCCUGGAUGAGCUUGCAUAGUAUUUAGUUU [g2:g21:cont:t1U]”, the “pre-steady-state target cleavage rate” value was found to be 1.05 ± 0.05 under setting [1] and 0.0579 ± 0.015 under setting [2].
Take UGGACGUACAGCUUGCAUUGUAUUUAGUUA: the “pre-steady-state target cleavage rate” value under setting [1] was 0.79 ± 0.05 and the “pre-steady-state target cleavage rate” value under setting [2] was 0.0432 ± 0.01.
As to UCCUGGAACAGCGUUGCAUAGUAUUUAGUUA, the “pre-steady-state target cleavage rate” value came out at 0.939 ± 0.055 under setting [1] and 0.0303 ± 0.0056 under setting [2].
For UCGACCUACAGCUUGCAUAGUAUAUAGUAA, the “pre-steady-state target cleavage rate” value is, setting by setting: under setting [1], 0.463 ± 0.029; under setting [2], 0.0147 ± 0.0039.
As to UGGACCUACAGCUUGGAUACUAUUUAGUUA, the “pre-steady-state target cleavage rate” value runs as follows: under setting [1], 0.318 ± 0.028; under setting [2], 0.0235 ± 0.0052.
On to UCGACCUUCAGCUUGCAUAGUAUUUAGAUA, for which the “pre-steady-state target cleavage rate” value runs as follows: under setting [1], 0.481 ± 0.038; under setting [2], 0.0266 ± 0.006.
Regarding UCGACCUACACCUUGCAUAGUAUUUAGAAA, the “pre-steady-state target cleavage rate” value runs as follows: under setting [1], 0.68 ± 0.078; under setting [2], 0.00902 ± 0.0024.
In the case of UCCAGCUACAGCUUGCAUAGUAUUUACUUA, the “pre-steady-state target cleavage rate” value is, setting by setting: under setting [1], 0.356 ± 0.028; under setting [2], 0.0264 ± 0.0037.
As for AGGACCAUACAGCUUGCAUAGUAUUUAGUUA, the “pre-steady-state target cleavage rate” value under setting [1] was 1.06 ± 0.051 and the “pre-steady-state target cleavage rate” value under setting [2] came to 0.0829 ± 0.013.
Take UGGACCUAGAGCUUGCAAAGUAUUUAGUUA: the “pre-steady-state target cleavage rate” value turned out to be 1.02 ± 0.057 under setting [1] and 0.0279 ± 0.0063 under setting [2].
The like results for UCCUCCUACUAGCUUGCAUAGUAUUUAGUUA were, in that order, 0.698 ± 0.031 and 0.0459 ± 0.0088.
With UCCUGCUACAGCUUGCAUAGUAAUUUAGUUA, the “pre-steady-state target cleavage rate” value runs as follows: under setting [1], 0.169 ± 0.021; under setting [2], 0.00511 ± 0.0023.
Take “UGGACCUACAGCUUGCAUAGUAUUUUCAAA [g6:g29:cont:t1A]”: the “pre-steady-state target cleavage rate” value runs as follows: under setting [1], 0.231 ± 0.035; under setting [2], 0.00394 ± 0.0029.
As for AGGACCUACAGCUUGCAUACUAUUUAGUAA, the “pre-steady-state target cleavage rate” value reads like this: under setting [1], 0.233 ± 0.029; under setting [2], 0.018 ± 0.004.
The like results for AGGACCUUGUGCUUGCAUAGUAUUUAGAAA were, in that order, 0.176 ± 0.024 and 0.00889 ± 0.0024.
On to UCCUCCUACAGCAUGCAUAGUAUAUAGUUA, for which the “pre-steady-state target cleavage rate” value by setting is: under setting [1], 0.786 ± 0.042; under setting [2], 0.00795 ± 0.0022.
As for UCCUGGUACAGCUUGCAUUGUAUAUAGUUA, the “pre-steady-state target cleavage rate” value runs as follows: under setting [1], 0.122 ± 0.024; under setting [2], 0.012 ± 0.0039.
UCCACCUACAGCUUGCAUACUAUUUACUUA: the “pre-steady-state target cleavage rate” value runs as follows: under setting [1], 0.192 ± 0.027; under setting [2], 0.0161 ± 0.0042.
For AGGAGCUACAGGUUGCAUAGUAUUUAGUUA, in that order: 1.17 ± 0.075 and 0.0502 ± 0.0084.
Turning to UCCUGGAUCUGCUUGCAUAGAAUUUAGUUA, the “pre-steady-state target cleavage rate” value is, setting by setting: under setting [1], 0.0558 ± 0.0098; under setting [2], 0.0133 ± 0.0047.
Regarding UCCUGCUACAGCUUGCAUAGUAUUUUGUUA, the “pre-steady-state target cleavage rate” value under setting [1] came out at 0.799 ± 0.046 and the “pre-steady-state target cleavage rate” value under setting [2] came out at 0.0348 ± 0.007.
Regarding UGGACCUACUGCUUGCUUAGUAUUUAGUUA, the “pre-steady-state target cleavage rate” value is, setting by setting: under setting [1], 1.4 ± 0.081; under setting [2], 0.0402 ± 0.0083.
Consider UCCACCUACAGCUAGCAUACUAUUUAGUUA, for which the “pre-steady-state target cleavage rate” value under setting [1] was determined as 0.363 ± 0.033 and the “pre-steady-state target cleavage rate” value under setting [2] is 0.0133 ± 0.0036.
As for UCCUCCUAGAGCUUGCUUAGUAUUUAGUUA, the “pre-steady-state target cleavage rate” value was found to be 1.04 ± 0.059 under setting [1] and 0.0213 ± 0.0041 under setting [2].
Regarding UCCUGGAUCAGCUAGCAUACUAUUUAGUUA, the “pre-steady-state target cleavage rate” value is, setting by setting: under setting [1], 0.293 ± 0.024; under setting [2], 0.00774 ± 0.0028.
For the sequence AGGACCUUCAGCUUGCAAAGUAUUUAGUUA, the “pre-steady-state target cleavage rate” value worked out at 1.3 ± 0.051 under setting [1] and 0.0464 ± 0.0089 under setting [2].
For UCGACCUACUGCUUGCAUUGUAUUUAGUUA, the “pre-steady-state target cleavage rate” value under setting [1] turned out to be 0.958 ± 0.04 and the “pre-steady-state target cleavage rate” value under setting [2] worked out at 0.0353 ± 0.0089.
Regarding UGGACCUACAGCUUGCAUAGAAUUAAGUUA, the “pre-steady-state target cleavage rate” value by setting is: under setting [1], 0.262 ± 0.033; under setting [2], 0.0103 ± 0.0035.
For ACGACCUACAGCUUGCUUAGUAUUUAGUUA, in that order: 1.57 ± 0.074 and 0.0527 ± 0.013.
Consider AGGAGCUACUGCUUGCAUAGUAUUUAGUUA, for which the “pre-steady-state target cleavage rate” value is 1.14 ± 0.081 under setting [1] and 0.0634 ± 0.01 under setting [2].
For the sequence UCCUGGAUGAGCCUUGCAUAGUAUUUAGUUA, the “pre-steady-state target cleavage rate” value by setting is: under setting [1], 0.458 ± 0.035; under setting [2], 0.0177 ± 0.0054.
For UCGACCUACAGCUUGCAUAGUAGUUUAGUUA, in that order: 0.574 ± 0.031 and 0.0134 ± 0.0039.
Take UCCUGGAUGAGCUUGCAUAGUAUUUAGGUUA: the “pre-steady-state target cleavage rate” value reads like this: under setting [1], 0.547 ± 0.048; under setting [2], 0.0295 ± 0.0066.
UCCUCCUACAGGCUUGCAUAGUAUUUAGUUA: the “pre-steady-state target cleavage rate” value is, setting by setting: under setting [1], 0.937 ± 0.041; under setting [2], 0.0442 ± 0.0069.
UCCUGCUAGAGCUUGCAUACUAUUUAGUUA: the “pre-steady-state target cleavage rate” value is 0.248 ± 0.03 under setting [1] and 0.0221 ± 0.0058 under setting [2].
The like results for UCGACCUACAGCUUGCAUAGUACUUAGUUA were, in that order, 1.03 ± 0.037 and 0.062 ± 0.01.

The values above are taken from the supplement of paper PMC10338343.
